This is an account of results in ChEMBL document CHEMBL1201862, “PubChem BioAssay data set” (2004).

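Step 1: Grow cells in 96-well plates. Step 2: Expose to compound for 48 hours at 5 concentrations. Step 3: Interpolate endpoints linearly; if unreached, use highest concentration. Abbreviation: GI50, concentration required for 50% inhibition of growth.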 Active and inactive are the calls of the source. Cut-off read from the data, not from the text of the source: active = GI50 up to about 1.1 µM and inactive = higher. Numbered stars: 1 amine (or outer) side, 2 acyl side, 3 side chain; on linkers, the order of the positions; unused ones are H or OH. Bridge positions count the residues as written; N and C are the ends. Square brackets hold non-standard residues; d marks the D form. Peptide text beside a SMILES is read from it. I, II: the chains in the order shown. * marks the point of attachment. ξ: configuration not given here. γ4hArg(2R,3R-(OH)2) = N=C(N)NCCC[C@H](N[*:1])[C@@H](O)[C@@H](O)C(=O)[*:2]; Actinocin(1to9) = Cc1c2oc3c(C)ccc(C(=O)[*:2])c3nc-2c(C(=O)[*:1])c(N)c1=O; Gln(3S,4R-Me2) = C[C@H]([C@H](N)C(=O)O)[C@@H](C)C(N)=O; X35 = CC[C@H](C)[C@@H](N[*:1])[C@@H](O)CC(=O)[*:2]; X46 = CC(C)C[C@H](C)[C@@H](O)[C@@H](C)C(=O)*; Quinoxaline2carbonyl = O=C(c1cnc2ccccc2n1)*; X38 = CCC(=O)CC(O)CC(C)CC(N[*:1])C(=O)[*:2]; X41 = CCC(=O)CC1CC(C)CC(C(=O)[*:2])N1[*:1]; X4 = C[C@H](N[*:1])C(=O)C(C)(C)C(=O)[*:2]; X47 = COC(c1ccc(O)cc1)C(N[*:1])C(=O)[*:2]; Hmpa(2S,3S) = CC[C@H](C)[C@H](O)C(=O)O; X52 = CC(C)C(C)C(C(=O)[*:2])N(C)[*:1]; γGlu = O=C(O)[CH](CCC(=O)[*:2])N[*:1]; X33 = O=C(c1ccc(-c2ccc(Cl)cc2Cl)o1)*; NMeY = CN[C@@H](Cc1ccc(O)cc1)C(=O)O; Picolinoyl(3-OH) = O=C(c1ncccc1O)*; ξLeu(3ξ-OH) = CC(C)C(O)C(N)C(=O)O; NMePhg = CN[CH](C(=O)O)c1ccccc1; NMeQ = CN[C@@H](CCC(N)=O)C(=O)O; aThr = C[C@H](O)[C@H](N)C(=O)O; ξNMe2Val = CC(C)C(C(=O)*)N(C)C; ξPro(4ξ-Me) = CC1CNC(C(=O)O)C1; NMeL = CN[C@@H](CC(C)C)C(=O)O; Thr(3ξ) = CC(O)[C@H](N)C(=O)O; X28 = C=CCC(O[*:1])C(=O)[*:2]; dNMeL = CN[C@H](CC(C)C)C(=O)O; Hyp = O=C(O)[CH]1C[CH](O)CN1; NMeV = CN[CH](C(=O)O)C(C)C; Hiv = CC(C)[C@H](O)C(=O)O; X25 = COc1ccc(CN*)c(OC)c1; NMeA = CN[CH](C)C(=O)O; Octanoyl = CCCCCCCC(=O)*; X40 = CCCCCCCCC(C)C(=O)*; dNMeA = CN[C@H](C)C(=O)O; Ac5c = NC1(C(=O)O)CCCC1; NMeC = CN[CH](CS)C(=O)O; Pyruvoyl = CC(=O)C(=O)*; X37 = CCC(C)/C=C/C(=O)*; Boc = CC(C)(C)OC(=O)*; Aib = CC(C)(N)C(=O)O; NHBn = c1ccc(CN*)cc1; X42 = CC(CN(C)CCO)N*; X39 = CC(CN(C)C)N*; βAla = NCCC(=O)O; Sar = CNCC(=O)O; tBu = CC(C)(C)*; NHOH = ON*

This experiment relates to NCI-H322M. Description: NCI anticancer screen, dose series, 48 h.
For the molecule `COC1=CC(=O)N(C(=O)[C@@H](OC(=O)[C@@H]2CCCN2C(=O)[C@@H]2CCCN2C(=O)[C@H](CC(C)C)N(C)C(=O)[C@@H](NC(=O)[C@@H](NC(=O)OCc2ccccc2)C(C)C)C(C)C)C(C)C)[C@H]1Cc1ccccc1` (HELM PEPTIDE1{[O=C(OCc1ccccc1)[*:2]].V.V.[meL].P.P.[COC1=CC(=O)N(C(=O)[C@@H](O[*:1])C(C)C)[C@H]1Cc1ccccc1]}$$$$V2.0), the GI50 was inactive: > 100 µM.

For the molecule `CC(C)(NC(=O)OCc1ccccc1)C(=O)NC(Cc1ccccc1)C(=O)O` (stereo not given) (HELM PEPTIDE1{[O=C(OCc1ccccc1)[*:2]].[Aib].[O=C(O)C(Cc1ccccc1)N[*:1]]}$$$$V2.0), the GI50 was inactive: > 100 µM.

Consider `NCCCCC(NC(=O)OCc1ccccc1)C(=O)NCC(N)=O` (stereo not given) (HELM PEPTIDE1{[O=C(OCc1ccccc1)[*:2]].[NCCCCC(N[*:1])C(=O)[*:2]].G.[am]}$$$$V2.0), for which the GI50 is inactive: > 100 µM.

For `CC1NC(=O)C(NC(=O)c2cnc3ccccc3n2)COC(=O)C(C(C)C)N(C)C(=O)C2CSSCC(C(=O)N(C)C(C(C)C)C(=O)OCC(NC(=O)c3cnc4ccccc4n3)C(=O)NC(C)C(=O)N2C)N(C)C1=O` (stereo not given) (I: Quinoxaline2carbonyl-SA[NMeC][NMeV] / II: Quinoxaline2carbonyl-SA[NMeC][NMeV]; ester I:1-II:C, I:C-II:1; disulfide I:3-II:3; configuration not given here), the GI50 was active: < 0.01 µM.

For `CCC(C)C1NC(=O)C(NC(=O)c2c3nc4c(C(=O)NC5C(=O)NC(C(C)CC)C(=O)N6CCCC6C(=O)N(C)CC(=O)N(C)C(C(C)C)C(=O)OC5C)ccc(C)c4oc-3c(C)c(=O)c2N)C(C)OC(=O)C(C(C)C)N(C)C(=O)CN(C)C(=O)C2CCCN2C1=O` (stereo not given) (I: TIP[Sar][NMeV] / II: TIP[Sar][NMeV]; ester I:1-I:C, II:1-II:C; linker I:N-II:N via Actinocin(1to9); configuration not given here), the GI50 was active: 0.00171 µM.

For the molecule `Cc1c2oc3c(C)ccc(C(=O)N[C@@H]4C(=O)N[C@H](C(C)C)C(=O)N5CCC[C@H]5C(=O)N(C)CC(=O)N(C)[C@@H](C(C)C)C(=O)O[C@H]4C)c3nc-2c(C(=O)N[C@@H]2C(=O)N[C@H](C(C)C)C(=O)N3CCC[C@H]3C(=O)N(C)CC(=O)N(C)[C@@H](C(C)C)C(=O)O[C@H]2C)c(N)c1=O` (I: [aThr][dV]P[Sar][NMeV] / II: [aThr][dV]P[Sar][NMeV]; ester I:1-I:C, II:1-II:C; linker I:N-II:N via Actinocin(1to9)), the GI50 was active: 0.00221 µM.

Consider `CCCCCCCC(=O)N[C@H](C(=O)N[C@H](C(=O)N(C)[C@H](C(=O)N1CCC[C@H]1C(=O)N(C)[C@H](C)C(=O)NCc1ccc(OC)cc1OC)C(C)C)C(C)C)C(C)C` (Octanoyl-VV[NMeV]P[dNMeA]-X25), for which the GI50 is inactive: 20.7 µM.

Consider `CC[C@H](C)[C@H]1NC(=O)[C@@H](NC(=O)[C@@H](CC(C)C)N(C)C(=O)[C@@H]2CCCN2C(=O)C(C)=O)[C@@H](C)OC(=O)[C@H](Cc2ccc(OC)cc2)N(C)C(=O)[C@@H]2CCCN2C(=O)[C@H](CC(C)C)NC(=O)[C@H](C(C)C)OC(=O)C[C@@H]1O` (Pyruvoyl-P[dNMeL]T[X35][Hiv]LP[NMeY](Me); ester 3-C), for which the GI50 was active: 0.00467 µM.

On to `CCC(C)C(NC(=O)CNC(=O)C(Cc1ccccc1)NC(=O)C1CCCN1C(=O)c1ccc(-c2ccc(Cl)cc2Cl)o1)C(=O)OC` (stereo not given) (X33-PFGI-OMe; configuration not given here), for which the GI50 is inactive: 48.6 µM.

Regarding `CCC(=O)CC(O)CC(C)CC(NC(=O)C1CC(C)CN1C(=O)/C=C/C(C)CC)C(=O)NC(C(=O)NC(C)(C)C(=O)NC(CC(C)C)C(=O)NC(CC(C)C)C(=O)NC(C)(C)C(=O)NC(C)(C)C(=O)NCCC(=O)NC(C)CN(C)C)C(O)C(C)C` (stereo not given) (X37-[ξPro(4ξ-Me)][X38][ξLeu(3ξ-OH)][Aib]LL[Aib][Aib][βAla]-X39; configuration not given here), the GI50 was inactive: 2.14 µM.

With `CCCCCCCCC(C)C(=O)N1CCCC1C(=O)N1C(CC(=O)CC)CC(C)CC1C(=O)NC(C)C(=O)NC(C)(C)C(=O)NC(C)(C)C(=O)NC(C(=O)NC(C)C(=O)NC(C)(C)C(=O)NC(C)(C)C(=O)NC(C)CN(C)CCO)C(C)CC` (stereo not given) (X40-P[X41]A[Aib][Aib]IA[Aib][Aib]-X42; configuration not given here), the GI50 was active: 0.406 µM.

Take `COC(c1ccc(O)cc1)C1NC(=O)[C@H](CCC(N)=O)N(C)C(=O)[C@H](CC(C)C)NC(=O)[C@@H](CCCN=C(N)N)NC(=O)[C@H](C(C)O)NC(=O)[C@@H](NC(=O)[C@@H](NC(=O)[C@H](O)[C@H](O)[C@H](CCCN=C(N)N)NC(=O)[C@H](C)NC(=O)[C@H](C)[C@H](O)[C@@H](C)CC(C)C)[C@@H](C)[C@@H](C)C(N)=O)[C@@H](C)OC(=O)[C@H](C)N(C)C1=O` (stereo partly drawn) (X46-A[γ4hArg(2R,3R-(OH)2)][Gln(3S,4R-Me2)]T[Thr(3ξ)][dR]L[NMeQ][X47][NMeA]; ester 4-C): the GI50 was active: 0.355 µM.

`CC[C@H](C)[C@@H]1OC(=O)CCNC(=O)[C@@H](C)NC(=O)C(C)(C)C(=O)[C@H](C)NC(=O)[C@H](Cc2ccc(OC)cc2)N(C)C(=O)[C@H](C(C)C)N(C)C(=O)CNC(=O)[C@H](CC(C)C)N(C)C(=O)CNC1=O` (cyclo(G[NMeL]G[NMeV][NMeY](Me)[X4][dA][βAla][Hmpa(2S,3S)])): the GI50 is inactive: 6.22 µM.

As to `CC(OC(C)(C)C)C1NC(=O)C(CCCCNC(=O)OC(C)(C)C)NC(=O)C(Cc2c[nH]c3ccccc23)NC(=O)C(Cc2ccccc2)NC(=O)C2(CCCC2)NC(=O)C(Cc2ccccc2)NC1=O` (stereo not given) (cyclo([Ac5c]FWK(Boc)T(tBu)F); configuration not given here), the GI50 is inactive: 38.9 µM.

With `C=CCC1OC(=O)CCNC(=O)C(C)N(C)C(=O)C(C(C)C)N(C)C(=O)C(C(C)CC)NC(=O)C2CCCN2C1=O` (stereo not given) (cyclo([X28]PI[NMeV][NMeA][βAla]); configuration not given here), the GI50 is inactive: 23.7 µM.

Turning to `CCCCC[C@@H]1OCO[C@@]2(C)/C=C(C)\C=C/C(=O)O[C@H]([C@@H](C)[C@@H](O)[C@H](C)[C@@]3(O)C[C@@H](O[C@H]4C[C@@H](O)[C@H](O)[C@@H](C)O4)[C@H](C)[C@@H](C)O3)[C@@H](OC)/C=C\C=C(\C)C[C@@H]1[C@@H]2O` (stereo in doubt), the GI50 is active: 0.0547 µM.

As to `CC(C)[C@H](CCl)NC(=O)c1cccc(C(=O)N[C@H](CCl)C(C)C)n1` (stereo in doubt), the GI50 is inactive: > 100 µM.

Consider `CC(C)CC1NC(=O)C(NC(=O)c2ncccc2O)C(C)OC(=O)C(c2ccccc2)N(C)C(=O)C(C)NC(=O)C(C(C)C(C)C)N(C)C(=O)CN(C)C(=O)C2CC(O)CN2C1=O` (stereo not given) ({Picolinoyl(3-OH)}-TL[Hyp][Sar][X52]A[NMePhg]; ester 1-C; configuration not given here), for which the GI50 was inactive: 68.5 µM.

Regarding `CCOC(=O)CNC(=O)C(CCC(=O)NO)NC(=O)CCC(N)C(=O)O` (stereo not given) (γGlu-Glu(NHOH)-Gly-OEt; configuration not given here), the GI50 was inactive: > 100 µM.

As for `CC(C)C(NC(=O)C(C(C)C)N(C)C)C(=O)N(C)C(C(=O)N1CCCC1C(=O)N1CCCC1C(=O)NCc1ccccc1)C(C)C` (stereo not given) (ξNMe2Val-V[NMeV]PP-NHBn; configuration not given here), the GI50 is active: 0.01 µM.
